{"source": "the supplement of paper PMC10126150", "note": "Sequences with one replicate were seen in a single cluster, so their values are uncertain.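 Note: ATP exposure 15 min at 22 °C before imaging.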"}
{"system": "ATP", "assay": "switch fluorescence ratio, 500 uM ATP over buffer (Cy3 cluster intensity, sum of 5 cycles each) (fold (ratio)); higher = stronger signal-on switching upon ATP binding; sequences stand for … in TCGTCGGCAGCGTCAGATGTGTATAAGAGACAGTTTTTTTTTTTTTTTTTTTTTTTTT…TC", "conditions": "aptamer strand: ATP DNA aptamer (quencher-CACCTGGGGGAGTATTGCGGAGGAAGG + anchor), 100 nM annealed; ATP concentration: 500 uM; one replicate", "outline": "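Imaging in selection buffer was followed by imaging after 15 min with 500 uM ATP at 22 °C, for Cy3-labelled switching-strand clusters annealed to 100 nM quencher-labelled ATP aptamer on a modified Illumina MiSeq flow-cell. Five of these buffer/ATP cycles ran, separated by NaOH stripping and re-annealing. The fluorescence ratio per cluster is summed target-cycle over summed buffer-cycle Cy3 intensity, averaged per switch-domain sequence; clusters outside 100-1000 RFU were removed.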"}
{"sequence": "CATGTAACTG", "switch fluorescence ratio": 0.978}
{"sequence": "TCCGCTCGGG", "switch fluorescence ratio": 1.18}
{"sequence": "TAGTTTCCAC", "switch fluorescence ratio": 1.19}
{"sequence": "ATCATGCATG", "switch fluorescence ratio": 1.01}
{"sequence": "ACCTCCTGT", "switch fluorescence ratio": 1.08}
{"sequence": "GGGGGGACCA", "switch fluorescence ratio": 0.978}
{"sequence": "GAGTGGGAAG", "switch fluorescence ratio": 1}
{"sequence": "CTTGTGCATA", "switch fluorescence ratio": 1.14}
{"sequence": "TTATCGTAAT", "switch fluorescence ratio": 0.988}
{"sequence": "CGGGCATTAA", "switch fluorescence ratio": 1.2}
{"sequence": "TAGAGTAACT", "switch fluorescence ratio": 1.01}
{"sequence": "TATCGGGTTG", "switch fluorescence ratio": 1}
{"sequence": "TGAGTGATTA", "switch fluorescence ratio": 1.01}
{"sequence": "ACACTCAGGT", "switch fluorescence ratio": 1.31}
{"sequence": "CGTCCAGCGG", "switch fluorescence ratio": 1.1}
{"sequence": "GGCCACCAAT", "switch fluorescence ratio": 1}
{"sequence": "TACGGCTTGT", "switch fluorescence ratio": 1.04}
{"sequence": "AGTGAACCGT", "switch fluorescence ratio": 0.983}
{"sequence": "ACTCAGCGAC", "switch fluorescence ratio": 3}
{"sequence": "CTTACGCGAT", "switch fluorescence ratio": 1.21}
{"sequence": "TGCTCGAGGA", "switch fluorescence ratio": 0.975}
{"sequence": "AAATTAACTT", "switch fluorescence ratio": 1.06}
{"sequence": "GCACGTAATA", "switch fluorescence ratio": 1.61}
{"sequence": "TAGCCGCGTC", "switch fluorescence ratio": 1.03}
{"sequence": "GTTGTC", "switch fluorescence ratio": 0.943}
{"sequence": "TGATCTATGT", "switch fluorescence ratio": 0.986}
{"sequence": "ATTCGCGAAT", "switch fluorescence ratio": 1.18}
{"sequence": "AACCTAAGT", "switch fluorescence ratio": 1.01}
{"sequence": "CCGCTTGCCA", "switch fluorescence ratio": 1.23}
{"sequence": "AAACTCGACC", "switch fluorescence ratio": 1.22}
{"sequence": "TCTTCGGCCG", "switch fluorescence ratio": 1.05}
{"sequence": "TACATATTAG", "switch fluorescence ratio": 1}
{"sequence": "TGATATGTG", "switch fluorescence ratio": 1.02}
{"sequence": "GGATATCGGA", "switch fluorescence ratio": 0.969}
{"sequence": "CATCATTTTC", "switch fluorescence ratio": 1.03}
{"sequence": "GTGAGGGTGT", "switch fluorescence ratio": 1.08}
{"sequence": "GTTTAAGATC", "switch fluorescence ratio": 0.993}
{"sequence": "GAGAGGCCCT", "switch fluorescence ratio": 0.981}
{"sequence": "ACAGGGTGTG", "switch fluorescence ratio": 1.02}
{"sequence": "TTAGAGTTTG", "switch fluorescence ratio": 0.967}
{"sequence": "AGAACGCAGA", "switch fluorescence ratio": 1.04}
{"sequence": "CTAGGACTCT", "switch fluorescence ratio": 0.981}
{"sequence": "CATGGCCAGT", "switch fluorescence ratio": 0.997}
{"sequence": "ACGACTTTTA", "switch fluorescence ratio": 1.01}
{"sequence": "TCCTACACGT", "switch fluorescence ratio": 1.12}
{"sequence": "CAGTAGCCTG", "switch fluorescence ratio": 1.02}
{"sequence": "TAGCTGACTC", "switch fluorescence ratio": 1.54}
{"sequence": "TTTATTACTG", "switch fluorescence ratio": 1.04}
{"sequence": "TGTGCTAGGA", "switch fluorescence ratio": 0.984}
{"sequence": "GGCCCATTCT", "switch fluorescence ratio": 0.935}
{"sequence": "TGGCGACTGA", "switch fluorescence ratio": 0.945}
{"sequence": "GCGGGAATGC", "switch fluorescence ratio": 1.48}
{"sequence": "AATATTATGC", "switch fluorescence ratio": 1.05}
{"sequence": "GACTCATGTT", "switch fluorescence ratio": 0.999}
{"sequence": "TCAAGCTAAT", "switch fluorescence ratio": 1.06}
{"sequence": "TGTAATGTGT", "switch fluorescence ratio": 0.997}
{"sequence": "TTCACAGTTA", "switch fluorescence ratio": 0.988}
{"sequence": "CACGATGGGA", "switch fluorescence ratio": 1.06}
{"sequence": "TTACTTTCGG", "switch fluorescence ratio": 0.988}
{"sequence": "TCAGTGGAGC", "switch fluorescence ratio": 1.03}
{"sequence": "GTAGCGCACA", "switch fluorescence ratio": 0.999}
{"sequence": "CCAATGGAGA", "switch fluorescence ratio": 1.02}
{"sequence": "CTCGGATGC", "switch fluorescence ratio": 1}
{"sequence": "CATTGTTCCC", "switch fluorescence ratio": 0.961}
{"sequence": "TTGCGGATCC", "switch fluorescence ratio": 1.03}
{"sequence": "ACAATGCCGC", "switch fluorescence ratio": 1.1}
{"sequence": "TGGCGCCCCT", "switch fluorescence ratio": 0.998}
{"sequence": "TTCTTTTAAA", "switch fluorescence ratio": 1.02}
{"sequence": "GCATGCTGAA", "switch fluorescence ratio": 0.964}
{"sequence": "AAAAGAGATC", "switch fluorescence ratio": 0.961}
{"sequence": "CGTAGCGACT", "switch fluorescence ratio": 1.09}
{"sequence": "ATTTTGGCCG", "switch fluorescence ratio": 0.913}
{"sequence": "AAGCGGGGCA", "switch fluorescence ratio": 0.967}
{"sequence": "AAGGGTGGCG", "switch fluorescence ratio": 1}
{"sequence": "TATAGAATGG", "switch fluorescence ratio": 0.972}
{"sequence": "TCTGCTAGGT", "switch fluorescence ratio": 1.02}
{"sequence": "AATAAAATAG", "switch fluorescence ratio": 0.981}
{"sequence": "TTTTCGTAGA", "switch fluorescence ratio": 1.04}
{"sequence": "GGTTTAGAAA", "switch fluorescence ratio": 1.01}
{"sequence": "AACGGTAGCA", "switch fluorescence ratio": 1.07}
{"sequence": "GGCTACTAAG", "switch fluorescence ratio": 1.04}
{"sequence": "ATTCGATTTG", "switch fluorescence ratio": 0.973}
{"sequence": "AATTGCAATT", "switch fluorescence ratio": 0.965}
{"sequence": "AGTTTGTATT", "switch fluorescence ratio": 0.978}
{"sequence": "ATATGGCAGG", "switch fluorescence ratio": 0.993}
